The source of these data is the supplement of paper PMC4723716.

In all, about 3,600 compounds were measured (“viability index relative to DMSO control”: median about 0.81, lowest 2% from about 0.13 on). The list shows a part of the results.
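Further: 384-well serum-free SaLSSA: MitoTracker Red CMXRos staining with saponin lysis, high-content imaging, treated-well particle count divided by plate-mean count of DMSO wells.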

The test system of the assay is Plasmodium falciparum NF54 stage V gametocytes. Kind of assay: viability index relative to DMSO control (fraction); higher = less gametocyte killing. To be noted: 1.25 µM, incubation time: 72 h.
`COc1ccc(-n2nc(C(=O)NCC(=O)NCCCN3CC(C)CC(C)C3)c3ccccc3c2=O)cc1Cl` (stereo unspecified): the viability index turned out to be 0.988.

Take `CCOc1ccccc1-n1c(N)c(C(=O)Nc2ccc(C)cc2)sc1=S`: the viability index was found to be 1.3.

The compound `Cc1n[nH]c2c1C(c1ccc([N+](=O)[O-])cc1)N(c1ccc(Br)cc1)C2=O` (stereo unspecified) showed a viability index of 1.11.

`c1ccc(-c2nn(-c3ccccc3)[n+](-c3ccccc3)n2)cc1` registered a viability index of 0.471.

Compound `COc1cnc(-c2ccccn2)nc1N1CCCC1` gave a viability index of 0.0429.

As for `CCOc1cc(Br)cc(C=C2NC(=S)NC2=O)c1O`, the viability index came out at 0.789.

Compound `CN1C(=O)N(C)C(NNC(N)=S)C1NNC(N)=S` (stereo unspecified) yielded a viability index of 0.144.

For `CCOc1ccc(Nc2nc(NCc3ccccc3)c3ccccc3n2)cc1`, the viability index was 0.973.

`COc1ccc(-c2cc(C(F)(F)F)n3nc(C(=O)NC4CCCCC4)c(Cl)c3n2)cc1OC`: the viability index was found to be 1.22.

`c1ccc(Cn2c(N=Nc3c(Nc4ccccc4)ccc4ccccc34)nc3ccccc32)cc1` yielded a viability index of 0.714.

Compound `Nc1nonc1-n1nnc(C(=O)NN=Cc2cc(Br)cs2)c1-c1ccccc1` returned a viability index of 0.657.

On to `Cc1c(Cl)cccc1N1C(=O)C2C3c4ccccc4C(c4ccccc43)C2C1=O` (stereo unspecified), for which the viability index was determined as 1.22.

The compound `O=C(NC1CCN(Cc2ccccc2)CC1)[C@@H](c1ccccc1)N1Cc2ccccc2C1=O` gave a viability index of 0.916.

For `Cc1cc(N2CCN(c3ccccn3)CC2)n2c(nc3ccccc32)c1C#N`, the viability index turned out to be 0.775.

Consider `COc1ccc(CN2CCN(C(=O)c3cccnc3)CC2)cc1OC`, for which the viability index was 1.03.

Take `Cc1cc(NC2CCCCC2)nc(NCc2ccccc2)n1`: the viability index is 0.629.

As to `Cc1ccc2cc3c(N)c4c(C)ccc(C)c4nc3nc2c1`, the viability index amounted to 0.667.

`CCOC(=O)c1c(N=Cc2cccc(OC)c2O)sc2c1CCN(C)C2` displayed a viability index of 0.649.

`CN(Cc1cc(-c2ccc(F)cc2)ccc1O)CC(O)c1ccccc1` (stereo unspecified) came in with a viability index of 0.933.

As to `CCCn1c(SCC(=O)N2c3ccccc3CC2C)nc2c1c(=O)n(C)c(=O)n2C` (stereo unspecified), the viability index is 0.896.

Take `Cc1ccc(Cl)cc1Nc1nc2ccccc2n2c(C)nnc12`: the viability index came to 0.739.

The compound `CCOc1ccc(Nc2cc(C)nc(Nc3ccc(OCC)cc3)n2)cc1` gave a viability index of 0.667.

Consider `CCNc1nc(NC(C)(C)C)nc(N2CCCC2)n1`, for which the viability index was determined as 0.819.

On to `CC1(C)N=C(N)N=C(N)N1c1ccc(Oc2ccc(Cl)cc2)c(Cl)c1`, for which the viability index worked out at 0.576.

Turning to `CCOC(=O)c1c(C)[n+](-c2ccc(C)cc2)c(CC)c2cc(OC)c(OC)cc12`, the viability index was determined as 0.717.

Regarding `O=C(Nc1ccc(Cl)cc1Cl)c1ccc(-c2nc(-c3ccccc3Cl)cs2)cc1`, the viability index turned out to be 1.04.
